Reference: the supplement of paper PMC9446081
Hit rate of the full screen: of about 39,000 compounds, about 220 (0.56%) showed activity. The list shows a part of the results.

These compounds were tested on Escherichia coli K-12 BW25113 (assay: relative growth (OD600 normalised to plate interquartile mean) (fraction); higher = less growth inhibition, active = 0.2 or less). Conditions: 50 µM; LB; incubation time: overnight (16-24 h).
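Also: static incubation at 37 °C against the wild-type strain, values averaged over two biological replicates.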

Row | Compound | relative growth
1 | COc1ccc(NC(=O)Nc2ccc3c(c2)CC(=O)N([C@H](C)CO)C[C@@H](C)[C@H](CN(C)S(=O)(=O)c2c(C)noc2C)O3)cc1 | inactive: 0.99
2 | Cc1c(CN2CCN(C(=O)[C@H](C)O)CC2)sc2c(N3CCOCC3)nc(-c3cnc(N)nc3)nc12 | inactive: 0.984
3 | O=C(C[C@@H]1CC[C@H](NC(=O)Nc2ccc3c(c2)OCO3)[C@H](CO)O1)NCCCN1CCOCC1 | inactive: 0.992
4 | C[C@@H]1CN([C@H](C)CO)C(=O)Cc2cc(NC(=O)Cn3cnnn3)ccc2O[C@H]1CN(C)C(=O)Nc1ccc2c(c1)OCO2 | inactive: 0.982
5 | Cc1noc(C)c1NC(=O)Nc1ccc2c(c1)CC(=O)N([C@H](C)CO)C[C@@H](C)[C@@H](CN(C)Cc1ccc(C(=O)Nc3ccccc3N)cc1)O2 | inactive: 1.02
6 | C[C@@H]1CCCCO[C@H](CN(C)Cc2ccc3c(c2)OCO3)[C@H](C)CN([C@H](C)CO)C(=O)c2cc(NC(=O)Nc3ccc4c(c3)OCO4)ccc2O1 | inactive: 0.961
7 | O=C1CCOCC1 | inactive: 1.01
8 | O=C(N[C@@H](c1ccc(-c2ccccc2)cc1)c1cnccn1)C1CCN(CCCOc2ccccc2)CC1 | inactive: 0.979
9 | CO[C@H]1CN(C)C(=O)c2ccc(NC(=O)C3CCOCC3)cc2OC[C@@H](C)N(Cc2cccnc2)C[C@@H]1C | inactive: 0.993
10 | C[C@@H]1CN([C@H](C)CO)C(=O)c2ccccc2-c2ccccc2CO[C@H]1CN(C)C(=O)Nc1ccc(F)cc1 | inactive: 0.974
11 | C=CC[C@@H](CC(=O)N(CCO)Cc1ccccc1)C(=O)NC[C@H](OC(=O)[C@@H](CC=C)Cc1ccc(F)cc1)c1ccccc1 | inactive: 1.07
12 | OC[C@H]1O[C@@H](n2ncc3c(O)ncnc32)[C@H](O)[C@@H]1O | inactive: 0.996
13 | COc1ccccc1CNC(=O)C[C@H]1C[C@H]2c3cc(NC(=O)C4CCOCC4)ccc3O[C@H]2[C@H](CO)O1 | inactive: 0.986
14 | C[C@@H]1CN([C@H](C)CO)C(=O)Cc2cc(NC(=O)Nc3cccc4ccccc34)ccc2O[C@@H]1CN(C)Cc1ccc(-c2ccccc2)cc1 | inactive: 1.01
15 | COc1ccc(NC(=O)Nc2ccc3c(c2)C(=O)N([C@@H](C)CO)C[C@@H](C)[C@H](CN(C)C(=O)Nc2cccc4ccccc24)O3)cc1 | inactive: 1.04
16 | C[C@@H]1CN([C@@H](C)CO)C(=O)Cc2cc(NC(=O)Cc3ccccc3)ccc2O[C@H]1CN(C)Cc1ccc(Oc2ccccc2)cc1 | inactive: 0.99
17 | COc1ccc(NC(=O)N(C)C[C@H]2OCCCC[C@H](C)Oc3ccc(NC(=O)CCC(F)(F)F)cc3C(=O)N([C@@H](C)CO)C[C@H]2C)cc1 | inactive: 0.989
18 | C[C@@H]1CN([C@@H](C)CO)S(=O)(=O)c2ccc(C#CCN(C)C)cc2O[C@H]1CN(C)C(=O)c1ccccc1F | inactive: 0.915
19 | COCC#Cc1ccc2c(c1)O[C@@H](CN(C)C(=O)CN(C)C)[C@@H](C)CN([C@@H](C)CO)S2(=O)=O | inactive: 0.985
20 | COc1ccc(NC(=O)Nc2ccc3c(c2)C(=O)N([C@@H](C)CO)C[C@@H](C)[C@H](CN(C)Cc2ccccc2)OCCCC[C@@H](C)O3)cc1 | inactive: 1.03

Row | Compound | relative growth
21 | CN1C(=O)c2cc(NC(=O)Nc3ccccc3F)ccc2OC[C@@H]2O[C@@H](CC(=O)NCc3ccc(-c4ccccc4)cc3)CC[C@H]21 | inactive: 0.988
22 | C[C@H]1CN([C@@H](C)CO)C(=O)c2ccccc2-c2ccccc2CO[C@@H]1CN(C)C(=O)Nc1ccccc1C(F)(F)F | inactive: 0.977
23 | Cc1nnc(=O)[nH]c1NNc1ccccc1 | inactive: 0.981
24 | C[C@@H]1CN([C@H](C)CO)C(=O)Cc2cc(NS(=O)(=O)c3ccccc3)ccc2O[C@H]1CN(C)Cc1ccc(C(=O)O)cc1 | inactive: 0.979
25 | COc1ccc2c3c(n(c2c1)C)[C@H](CO)N(C[C@]13CCN(CC1)C(=O)Nc1c(noc1C)C)C(=O)Nc1ccc(cc1)F | inactive: 1.02
26 | COC(=O)c1cc(C)cc(=O)o1 | inactive: 1.02
27 | Cc1noc(C)c1S(=O)(=O)N(C)C[C@@H]1Oc2ccc(NS(=O)(=O)c3cn(C)cn3)cc2CC(=O)N([C@@H](C)CO)C[C@H]1C | inactive: 0.973
28 | C[C@@H]1CN([C@@H](C)CO)C(=O)c2cc(NS(C)(=O)=O)ccc2O[C@@H]1CN(C)S(=O)(=O)c1ccccc1 | inactive: 0.988
29 | Cc1ccc(S(=O)(=O)N(C)C[C@H]2Oc3ccc(NC(=O)Cn4cnnn4)cc3C(=O)N([C@@H](C)CO)C[C@H]2C)cc1 | inactive: 1.01
30 | C[C@@H]1CN([C@H](C)CO)C(=O)Cc2cc(NC(=O)Nc3ccc(C(F)(F)F)cc3)ccc2O[C@@H]1CN(C)Cc1ccc(C(F)(F)F)cc1 | inactive: 1.03
31 | CN(C)c1nc(N)nc(Cn2ccnc2)n1 | inactive: 1.01
32 | Cc1cc(O)c(C=O)c2c1C(=O)Oc1c(COC(=O)C=CC(=O)O)c(O)c(C(=O)O)c(C)c1O2 | inactive: 1.14
33 | C[C@H]1CN([C@@H](C)CO)C(=O)Cc2cc(NS(=O)(=O)c3cccs3)ccc2O[C@@H]1CN(C)S(=O)(=O)c1ccccc1 | inactive: 0.947
34 | O=C(C[C@@H]1C[C@H]2c3cc(NC(=O)Nc4ccc(C(F)(F)F)cc4)ccc3O[C@H]2[C@@H](CO)O1)NCc1ccc(Cl)cc1 | inactive: 0.901
35 | Cc1noc(C)c1S(=O)(=O)N(C)C[C@H]1Oc2ccc(NC(=O)CCN3CCOCC3)cc2CC(=O)N([C@H](C)CO)C[C@@H]1C | inactive: 0.994
36 | C[C@@H](C[N+](C)(C)C)OC(N)=O | inactive: 0.988
37 | CC(C)n1cnnc1[C@@H](C)N | inactive: 0.984
38 | O=C(C[C@H]1C[C@@H]2c3cc(NC(=O)NC4CCCC4)ccc3O[C@@H]2[C@@H](CO)O1)NCc1ccc2c(c1)OCO2 | inactive: 1.02
39 | CO[C@H](C(=O)N(C)C[C@H]1OCc2ccccc2-c2c(n(C)c3ccccc23)C(=O)N([C@@H](C)CO)C[C@H]1C)c1ccccc1 | inactive: 1.01
40 | C[C@@H]1CCCCO[C@@H](CN(C)C(=O)Cc2ccccc2)[C@H](C)CN([C@H](C)CO)C(=O)c2cc(NC(=O)NC3CCCCC3)ccc2O1 | inactive: 1

Row | Compound | relative growth
41 | CC(C)(O)C#Cc1ccc([C@H]2[C@@H](CO)N3CCCCN(S(C)(=O)=O)C[C@@H]23)cc1 | inactive: 1.01
42 | COc1ccc(NC(=O)Nc2ccc3c(c2)C(=O)N([C@@H](C)CO)C[C@H](C)[C@@H](CN(C)Cc2ccncc2)OCCCC[C@@H](C)O3)cc1 | inactive: 1.02
43 | O=C(C[C@@H]1C[C@@H]2c3cc(NC(=O)Nc4ccc(C(F)(F)F)cc4)ccc3O[C@@H]2[C@@H](CO)O1)NCc1ccc(Cl)cc1 | inactive: 1
44 | O=C(C[C@@H]1CC[C@H]2[C@@H](COC[C@@H](O)CN2S(=O)(=O)c2ccccc2Cl)O1)NCCc1ccncc1 | inactive: 0.985
45 | C[C@H](CO)N1C[C@H](C)[C@@H](CN(C)Cc2ccc3c(c2)OCO3)OCCCC[C@H](C)Oc2ccc(NC(=O)Nc3ccccc3)cc2C1=O | inactive: 0.986
46 | CCOC(=O)c1c(C)n[nH]c1N | inactive: 0.963
47 | COc1ccc(-c2cn3cc(C(=O)NCC(N)=O)nc3c(=O)n2CC2CC2)c(F)c1 | inactive: 0.976
48 | Cc1noc(C)c1NC(=O)Nc1ccc2c(c1)C(=O)N([C@H](C)CO)C[C@@H](C)[C@H](CN(C)Cc1ccc(Cl)c(Cl)c1)OCCCC[C@@H](C)O2 | inactive: 0.939
49 | CC(=O)C1CCN(C(C)=O)CC1 | inactive: 1
50 | C[C@H](CO)N1C[C@H](C)[C@H](CN(C)Cc2ccc(Oc3ccccc3)cc2)Oc2ccc(NC(=O)Nc3ccc(C(F)(F)F)cc3)cc2CC1=O | inactive: 1.02
51 | COc1ccc(NC(=O)N(C)C[C@H]2OCCCC[C@H](C)Oc3ccc(NC(=O)Nc4ccc(C(F)(F)F)cc4)cc3C(=O)N([C@H](C)CO)C[C@@H]2C)cc1 | inactive: 0.996
52 | CNC(=O)c1cnc2n1CCN(Cc1nccn1C)C2 | inactive: 0.971
53 | NC(=O)c1cc2ccccc2o/c1=N\O | inactive: 0.929
54 | C[C@H](O)C#Cc1ccc2c(c1)O[C@@H](CN(C)C(=O)c1ccncc1)[C@H](C)CN([C@@H](C)CO)S2(=O)=O | inactive: 1.03
55 | C[C@@H]1CN([C@H](C)CO)C(=O)Cc2cc(NS(=O)(=O)c3cccs3)ccc2O[C@H]1CN(C)S(=O)(=O)c1ccc(F)cc1 | inactive: 1.03
56 | COC(=O)C[C@@H]1C(C)(C)[C@H](OC(C)=O)[C@@H]2[C@@H](OC(C)=O)[C@]34O[C@@]2(O)[C@]1(C)[C@H]3CC[C@]1(C)C4=CC(=O)O[C@H]1c1ccoc1 | inactive: 0.981
57 | Cc1ccc(S(=O)(=O)N(C)C[C@H]2OCCCC[C@@H](C)Oc3ccc(NS(=O)(=O)c4ccc(Cl)cc4)cc3C(=O)N([C@H](C)CO)C[C@@H]2C)cc1 | inactive: 1.04
58 | CC(C)[C@H]1C(=O)N[C@@H](CCCNC(=N)N)C(=O)NCC(=O)N[C@@H](CC(=O)O)C(=O)N[C@H](Cc2ccccc2)C(=O)N1C | inactive: 1.01
59 | O=C(C[C@@H]1CC[C@H]2[C@@H](COC[C@@H](O)CN2Cc2ccccc2F)O1)N[C@H]1CCN(Cc2ccccc2)C1 | inactive: 0.995
60 | C/C(=C/CC[C@@H](CO)[C@H]1CC[C@@]2(C)[C@H]3CC[C@@H]4C(C)(C)[C@H](O[C@H]5O[C@@H](CO)[C@@H](O)[C@@H](O)[C@@H]5O)C[C@H](O)[C@@]45C[C@@]35CC[C@@]12C)CO[C@H]1O[C@@H](CO)[C@@H](O)[C@@H](O)[C@@H]1O | inactive: 0.982
